This is an account of results in the supplement of paper PMC6089552.

Out of some 3,200 compounds screened, about 300 (9.4%) showed activity. Only a part is listed here, and it is no random draw.

This test deals with A673/TR/shEF. The experiment in a line: cell viability (LOESS-normalised, relative to median of negative controls) (log2 ratio); higher = more viable cells (less compound effect), active = hit call of the paper (over 3 MAD below the median). To be noted: treatment time: 72 h. The procedure, abridged: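 Doxycycline, present or absent from 24 h before compounds, was used to induce EWS-FLI1 shRNA knockdown in A673/TR/shEF Ewing sarcoma cells at 1,500 per well in 384-well plates. Cells then received library compounds at two or more concentrations, or DMSO controls, for three days. Viability was measured by CellTiter-Glo luminescence on an Envision reader, and per-plate LOESS correction, division by the negative-control median and log2 transformation followed.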

The mark [1] stands for this setting: 0.25 µM, library screen: screen1, EWS-FLI1 expression: high (no doxycycline).
The mark [2] stands for this setting: 0.25 µM, library screen: screen1, EWS-FLI1 expression: low (doxycycline-induced shRNA knockdown).
Setting [3] is: 0.25 µM, library screen: screen2, EWS-FLI1 expression: high (no doxycycline).
[4] abbreviates: 0.25 µM, library screen: screen2, EWS-FLI1 expression: low (doxycycline-induced shRNA knockdown).
The mark [5] stands for this setting: 2.5 µM, library screen: screen1, EWS-FLI1 expression: high (no doxycycline).
Setting [6] is: 2.5 µM, library screen: screen1, EWS-FLI1 expression: low (doxycycline-induced shRNA knockdown).
Where [7] appears, read: 2.5 µM, library screen: screen2, EWS-FLI1 expression: high (no doxycycline).
Setting [8] is: 2.5 µM, library screen: screen2, EWS-FLI1 expression: low (doxycycline-induced shRNA knockdown).
Setting [9] is: 0.103 µM, library screen: screen3, EWS-FLI1 expression: high (no doxycycline).
[10] abbreviates: 0.103 µM, library screen: screen3, EWS-FLI1 expression: low (doxycycline-induced shRNA knockdown).
The mark [11] stands for this setting: 0.308 µM, library screen: screen3, EWS-FLI1 expression: high (no doxycycline).
[12] abbreviates: 0.308 µM, library screen: screen3, EWS-FLI1 expression: low (doxycycline-induced shRNA knockdown).
The mark [13] stands for this setting: 0.926 µM, library screen: screen3, EWS-FLI1 expression: high (no doxycycline).
The mark [14] stands for this setting: 0.926 µM, library screen: screen3, EWS-FLI1 expression: low (doxycycline-induced shRNA knockdown).
Setting [15] is: 2.8 µM, library screen: screen3, EWS-FLI1 expression: high (no doxycycline).
[16] abbreviates: 2.8 µM, library screen: screen3, EWS-FLI1 expression: low (doxycycline-induced shRNA knockdown).
Setting [17] is: 8.3 µM, library screen: screen3, EWS-FLI1 expression: high (no doxycycline).
[18] abbreviates: 8.3 µM, library screen: screen3, EWS-FLI1 expression: low (doxycycline-induced shRNA knockdown).
The mark [19] stands for this setting: 25 µM, library screen: screen3, EWS-FLI1 expression: high (no doxycycline).
[20] abbreviates: 25 µM, library screen: screen3, EWS-FLI1 expression: low (doxycycline-induced shRNA knockdown).

For the compound `Cn1cnc([N+](=O)[O-])c1Sc1ncnc2nc[nH]c12`, the “cell viability (log2)” value was inactive: 0.138 (0.025 µM, library screen: screen2, EWS-FLI1 expression: high (no doxycycline)); inactive: 0.0997 (0.025 µM, library screen: screen2, EWS-FLI1 expression: low (doxycycline-induced shRNA knockdown)); inactive: 0.0615 under setting [1]; inactive: 0.0765 under setting [2]; inactive: 0.159 under setting [3]; inactive: 0.0607 under setting [4]. For the same compound, the “cell viability (log2)” value reads like this: under setting [5], inactive: -0.0254; under setting [6], inactive: 0.161; under setting [7], inactive: -0.0273; under setting [8], inactive: 0.0557; (25 µM, library screen: screen2, EWS-FLI1 expression: high (no doxycycline)) active: -0.337; (25 µM, library screen: screen2, EWS-FLI1 expression: low (doxycycline-induced shRNA knockdown)) inactive: 0.03.
As for `COc1ccc(-c2oc3cc(O[C@@H]4O[C@H](CO)[C@@H](O)[C@H](O)[C@H]4O)c(OC)c(O)c3c(=O)c2OC)cc1O`, the “cell viability (log2)” value by setting is: under setting [1], inactive: 0.0438; under setting [2], inactive: 0.127; under setting [5], inactive: 0.0949; under setting [6], inactive: 0.0982.
`CC[C@H](CO)Nc1nc(NCc2ccccc2)c2ncn(C(C)C)c2n1`: the “cell viability (log2)” value was active: -0.591 under setting [7] and active: -0.646 under setting [8].
For `OCCN(CCO)c1nc(N2CCCCC2)c2nc(N(CCO)CCO)nc(N3CCCCC3)c2n1`, the “cell viability (log2)” value is inactive: 0.0321 under setting [9]; inactive: -0.0336 under setting [10]; inactive: 0.146 under setting [1]; inactive: 0.0658 under setting [2]; inactive: 0.21 under setting [3]; inactive: 0.0699 under setting [4]. In addition, the “cell viability (log2)” value was inactive: 0.126 under setting [11]; inactive: 0.0254 under setting [12]; inactive: 0.0443 under setting [13]; inactive: 0.0182 under setting [14]; inactive: 0.23 under setting [5]; inactive: 0.303 under setting [6]. Besides, the “cell viability (log2)” value is inactive: 0.149 under setting [7]; inactive: 0.0237 under setting [8]; inactive: 0.122 under setting [15]; inactive: 0.0614 under setting [16]; inactive: 0.0362 under setting [17]; inactive: 0.00801 under setting [18]. In addition, the “cell viability (log2)” value under setting [19] was inactive: 0.0527 and the “cell viability (log2)” value under setting [20] is inactive: 0.00374.
With `O=C(O)c1ccccc1C(=O)Nc1ccc(S(=O)(=O)Nc2nccs2)cc1`, the “cell viability (log2)” value is inactive: 0.0438 under setting [1], inactive: 0.0682 under setting [2], inactive: 0.0569 under setting [5] and inactive: 0.121 under setting [6].
In the case of `O=c1onc2cnc3ccccc3n12`, the “cell viability (log2)” value reads like this: under setting [3], inactive: 0.0859; under setting [4], inactive: 0.147; under setting [7], inactive: 0.139; under setting [8], inactive: 0.0589.
`COc1ccc(CN2CCN(Cc3cc(OC)c(OC)c(OC)c3)CC2)cc1`: the “cell viability (log2)” value was inactive: 0.174 under setting [1], inactive: 0.0733 under setting [2], inactive: 0.142 under setting [5] and inactive: -0.0868 under setting [6].
Regarding `C[C@]12CC[C@@H]3c4ccc(OC(=O)c5ccccc5)cc4CC[C@H]3[C@@H]1CC[C@@H]2O`, the “cell viability (log2)” value is inactive: 0.00944 under setting [1], inactive: 0.00898 under setting [2], inactive: 0.189 under setting [5] and inactive: 0.15 under setting [6].
For the compound `COC(=O)[C@@H]1CC2=CC(=O)CC[C@]2(C)[C@@]23O[C@@H]2C[C@@]2(C)[C@@H](CC[C@@]24CCC(=O)O4)[C@H]13`, the “cell viability (log2)” value runs as follows: under setting [9], inactive: 0.089; under setting [10], inactive: 0.0408; under setting [11], inactive: 0.204; under setting [12], inactive: 0.0537; under setting [13], inactive: 0.086; under setting [14], inactive: 0.0439. The “cell viability (log2)” value by setting is: under setting [15], inactive: 0.158; under setting [16], inactive: 0.155; under setting [17], inactive: 0.154; under setting [18], inactive: 0.0848; under setting [19], inactive: 0.101; under setting [20], inactive: 0.11.
Regarding `CN1CCN(C(c2ccccc2)c2ccccc2)CC1`, the “cell viability (log2)” value by setting is: under setting [1], inactive: 0.0799; under setting [2], inactive: 0.0506; under setting [5], inactive: 0.178; under setting [6], inactive: 0.175.
